Only a part is listed here, and it is no random draw. The list includes weakly bound sequences.
Target: T1, GST-Ap-NF-kB RHD (UniProt A0A913YAJ5)
T1 sequence: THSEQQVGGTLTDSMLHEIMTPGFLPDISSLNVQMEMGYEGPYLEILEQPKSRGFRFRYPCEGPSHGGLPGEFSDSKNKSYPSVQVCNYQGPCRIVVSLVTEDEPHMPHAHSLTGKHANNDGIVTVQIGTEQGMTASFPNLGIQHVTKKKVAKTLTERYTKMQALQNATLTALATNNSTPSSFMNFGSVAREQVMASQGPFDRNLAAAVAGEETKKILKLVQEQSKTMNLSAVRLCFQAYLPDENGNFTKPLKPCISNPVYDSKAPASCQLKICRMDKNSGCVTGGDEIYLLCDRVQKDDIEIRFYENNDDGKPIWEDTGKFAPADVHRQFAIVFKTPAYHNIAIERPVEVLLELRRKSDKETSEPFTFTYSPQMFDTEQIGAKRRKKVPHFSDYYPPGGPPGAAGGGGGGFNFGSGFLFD
Assay: protein-binding microarray (PBM)
Details: PBM: ~300 nM protein, 6 mM HEPES pH 7.8, 80 mM KCl, 0.5 mM EDTA, 0.5 mM EGTA, 6% glycerol, 35 ng/ul poly-dIdC, 1% milk, 1 h, room temperature; high values mean tight binding; double strand, one strand shown

Row | Sequence | binding signal [z-score]
1 | CCGATTAACATCACTTGGGAAACTGATGTTAATCGGGTCTTGATTCGCTTGACGCTGCTG | 1.38
2 | CCGATTAACATCACAACACCCCCTGATGTTAATCGGGTCTTGATTCGCTTGACGCTGCTG | 5.03
3 | CCGATTAACATCAGGGGAGATAATGATGTTAATCGGGTCTTGATTCGCTTGACGCTGCTG | 5.17
4 | CCGATTAACATCAATCGGGAAATTGATGTTAATCGGGTCTTGATTCGCTTGACGCTGCTG | 1.3
5 | CCGATTAACATCACTTTGGGAAATGATGTTAATCGGGTCTTGATTCGCTTGACGCTGCTG | 0.407
6 | CCGATTAACATCAGGGAATCACATGATGTTAATCGGGTCTTGATTCGCTTGACGCTGCTG | 1.95
7 | CCGATTAACATCAAACTGGGAAATGATGTTAATCGGGTCTTGATTCGCTTGACGCTGCTG | 1.13
8 | CCGATTAACATCATGTTAGGGAATGATGTTAATCGGGTCTTGATTCGCTTGACGCTGCTG | 1.38
9 | CCGATTAACATCAAATTGCCCCCTGATGTTAATCGGGTCTTGATTCGCTTGACGCTGCTG | 4.13
10 | CCGATTAACATCAAAATCCCCCCTGATGTTAATCGGGTCTTGATTCGCTTGACGCTGCTG | 10.4
11 | CCGATTAACATCACCACCCCCCCTGATGTTAATCGGGTCTTGATTCGCTTGACGCTGCTG | 4.06
12 | CCGATTAACATCAAGAATTCCCGTGATGTTAATCGGGTCTTGATTCGCTTGACGCTGCTG | 4.85
13 | CCGATTAACATCAGGGAACTCCATGATGTTAATCGGGTCTTGATTCGCTTGACGCTGCTG | 2.66

Target: T2, GST-Nv-NF-kB (Cys allele) (UniProt E5G601)
T2 sequence: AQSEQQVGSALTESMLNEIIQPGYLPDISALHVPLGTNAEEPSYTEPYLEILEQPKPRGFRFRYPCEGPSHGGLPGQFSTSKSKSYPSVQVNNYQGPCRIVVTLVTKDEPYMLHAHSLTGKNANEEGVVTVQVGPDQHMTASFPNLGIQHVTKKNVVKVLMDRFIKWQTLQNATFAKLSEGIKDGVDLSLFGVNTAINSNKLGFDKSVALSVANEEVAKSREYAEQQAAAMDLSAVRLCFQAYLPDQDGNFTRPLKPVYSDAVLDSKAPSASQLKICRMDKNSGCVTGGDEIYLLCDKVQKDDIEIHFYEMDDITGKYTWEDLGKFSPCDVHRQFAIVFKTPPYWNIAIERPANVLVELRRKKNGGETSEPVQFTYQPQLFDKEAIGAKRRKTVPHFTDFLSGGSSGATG
Assay: protein-binding microarray (PBM)
Details: PBM: ~300 nM protein, 6 mM HEPES pH 7.8, 80 mM KCl, 0.5 mM EDTA, 0.5 mM EGTA, 6% glycerol, 35 ng/ul poly-dIdC, 1% milk, 1 h, room temperature; high values mean tight binding; double strand, one strand shown

Row | Sequence | binding signal [z-score]
14 | CCGATTAACATCATCCCCGTGTCTGATGTTAATCGGGTCTTGATTCGCTTGACGCTGCTG | 3.34
15 | CCGATTAACATCAGGGGAAACAATGATGTTAATCGGGTCTTGATTCGCTTGACGCTGCTG | 7.25
16 | CCGATTAACATCAGGAATTACCCTGATGTTAATCGGGTCTTGATTCGCTTGACGCTGCTG | 7.58
17 | CCGATTAACATCAGGGAAATTTATGATGTTAATCGGGTCTTGATTCGCTTGACGCTGCTG | 8.28
18 | CCGATTAACATCAGGCCCCCCCCTGATGTTAATCGGGTCTTGATTCGCTTGACGCTGCTG | 4.06
19 | CCGATTAACATCAGGGGGATTACTGATGTTAATCGGGTCTTGATTCGCTTGACGCTGCTG | 7.64
20 | CCGATTAACATCAGGGGTATTTATGATGTTAATCGGGTCTTGATTCGCTTGACGCTGCTG | 5.26
21 | CCGATTAACATCAAGCATTCCCCTGATGTTAATCGGGTCTTGATTCGCTTGACGCTGCTG | 7.73
22 | CCGATTAACATCACTAAAATCCCTGATGTTAATCGGGTCTTGATTCGCTTGACGCTGCTG | 3.38
23 | CCGATTAACATCACACATTTCCCTGATGTTAATCGGGTCTTGATTCGCTTGACGCTGCTG | 4.57
24 | CCGATTAACATCAGGGGTTTTTATGATGTTAATCGGGTCTTGATTCGCTTGACGCTGCTG | 8.52
25 | CCGATTAACATCAGGGAATAACCTGATGTTAATCGGGTCTTGATTCGCTTGACGCTGCTG | 6.79
26 | CCGATTAACATCAGGGAAAGAAATGATGTTAATCGGGTCTTGATTCGCTTGACGCTGCTG | 3.74
27 | CCGATTAACATCAGAAAGTTCCCTGATGTTAATCGGGTCTTGATTCGCTTGACGCTGCTG | 4.74
28 | CCGATTAACATCAAATTCCCAGGTGATGTTAATCGGGTCTTGATTCGCTTGACGCTGCTG | 3.11
29 | CCGATTAACATCAAACCCCCCCTTGATGTTAATCGGGTCTTGATTCGCTTGACGCTGCTG | 4.97
30 | CCGATTAACATCACAAGTTTCCCTGATGTTAATCGGGTCTTGATTCGCTTGACGCTGCTG | 5.33
31 | CCGATTAACATCAGGACATTCCCTGATGTTAATCGGGTCTTGATTCGCTTGACGCTGCTG | 4.82
32 | CCGATTAACATCAAATCCCCCCATGATGTTAATCGGGTCTTGATTCGCTTGACGCTGCTG | 6.31
33 | CCGATTAACATCAGGTTTTCCCATGATGTTAATCGGGTCTTGATTCGCTTGACGCTGCTG | 3.91
34 | CCGATTAACATCACGAAACCCCCTGATGTTAATCGGGTCTTGATTCGCTTGACGCTGCTG | 6.39
35 | CCGATTAACATCAAATTGTCCCCTGATGTTAATCGGGTCTTGATTCGCTTGACGCTGCTG | 5.87
36 | CCGATTAACATCAGGCATTTCCCTGATGTTAATCGGGTCTTGATTCGCTTGACGCTGCTG | 5.12
37 | CCGATTAACATCAGCCCCCCCCCTGATGTTAATCGGGTCTTGATTCGCTTGACGCTGCTG | 5.13
38 | CCGATTAACATCAGGGATGCCCCTGATGTTAATCGGGTCTTGATTCGCTTGACGCTGCTG | 8.09
39 | CCGATTAACATCAGGGGGTGGTATGATGTTAATCGGGTCTTGATTCGCTTGACGCTGCTG | 2.77
40 | CCGATTAACATCACGGGGTGGCCTGATGTTAATCGGGTCTTGATTCGCTTGACGCTGCTG | 0.326

Target: T3, GST-Dm-Relish (UniProt Q94527)
T3 sequence: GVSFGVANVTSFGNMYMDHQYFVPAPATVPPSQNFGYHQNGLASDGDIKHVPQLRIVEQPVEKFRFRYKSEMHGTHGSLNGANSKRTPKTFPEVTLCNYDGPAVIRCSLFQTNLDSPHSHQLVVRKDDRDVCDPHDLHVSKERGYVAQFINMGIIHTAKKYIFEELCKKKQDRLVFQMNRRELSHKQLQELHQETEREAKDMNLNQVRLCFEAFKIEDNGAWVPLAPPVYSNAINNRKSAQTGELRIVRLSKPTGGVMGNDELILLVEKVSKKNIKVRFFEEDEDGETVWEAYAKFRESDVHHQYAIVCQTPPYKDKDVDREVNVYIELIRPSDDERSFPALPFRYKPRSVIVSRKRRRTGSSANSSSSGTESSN
Assay: protein-binding microarray (PBM)
Details: PBM: ~300 nM protein, 6 mM HEPES pH 7.8, 80 mM KCl, 0.5 mM EDTA, 0.5 mM EGTA, 6% glycerol, 35 ng/ul poly-dIdC, 1% milk, 1 h, room temperature; Ap Aiptasia and Nv Nematostella (sea anemones) / Co Capsaspora / Aq Amphimedon (sponge) / Dm Drosophila / Hu human; RHD is the Rel homology domain; high values mean tight binding; most listed sequences are background and not binding sites; double strand, one strand shown

Row | Sequence | binding signal [z-score]
41 | CCGATTAACATCACTTGGGAAACTGATGTTAATCGGGTCTTGATTCGCTTGACGCTGCTG | 1.01
42 | CCGATTAACATCACAACACCCCCTGATGTTAATCGGGTCTTGATTCGCTTGACGCTGCTG | 4.4
43 | CCGATTAACATCAGGGGAGATAATGATGTTAATCGGGTCTTGATTCGCTTGACGCTGCTG | 1.79
44 | CCGATTAACATCAATCGGGAAATTGATGTTAATCGGGTCTTGATTCGCTTGACGCTGCTG | 0.6
45 | CCGATTAACATCACTTTGGGAAATGATGTTAATCGGGTCTTGATTCGCTTGACGCTGCTG | 0.742
46 | CCGATTAACATCAGGGAATCACATGATGTTAATCGGGTCTTGATTCGCTTGACGCTGCTG | 9.15
47 | CCGATTAACATCAAACTGGGAAATGATGTTAATCGGGTCTTGATTCGCTTGACGCTGCTG | 0.438
48 | CCGATTAACATCATGTTAGGGAATGATGTTAATCGGGTCTTGATTCGCTTGACGCTGCTG | 0.983
49 | CCGATTAACATCAAATTGCCCCCTGATGTTAATCGGGTCTTGATTCGCTTGACGCTGCTG | 3.33
50 | CCGATTAACATCAAAATCCCCCCTGATGTTAATCGGGTCTTGATTCGCTTGACGCTGCTG | 9.53
51 | CCGATTAACATCACCACCCCCCCTGATGTTAATCGGGTCTTGATTCGCTTGACGCTGCTG | 4.58
52 | CCGATTAACATCAAGAATTCCCGTGATGTTAATCGGGTCTTGATTCGCTTGACGCTGCTG | 4.9
53 | CCGATTAACATCAGGGAACTCCATGATGTTAATCGGGTCTTGATTCGCTTGACGCTGCTG | 6.21
